# Experimental data: the supplement of paper PMC8728848
# The other results are listed elsewhere or left out.
# B1: Angptl4 (Homo sapiens), Q9BY76 (protein)
# chain: MSGAPTAGAALMLCAATAVLLSAQGGPVQSKSPRFASWDEMNVLAHGLLQLGQGLREHAERTRSQLSALERRLSACGSACQGTEGSTDLPLAPESRVDPEVLHSLQTQLKAQNSRIQQLFHKVAQQQRHLEKQHLRIQHLQSQFGLLDHKHLDHEVAKPARRKRLPEMAQPVDPAHNVSRLHRLPRDCQELFQVGERQSGLFEIQPQGSPPFLVNCKMTSDGGWTVIQRRHDGSVDFNRPWEAYKAGFGDPHGEFWLGLEKVHSITGDRNSRLAVQLRDWDGNAELLQFSVHLGGEDTAYSLQLTAPVAGQLGATTVPPSGLSVPFSTWDQDHDLRRDKNCAKSLSGGWWFGTCSHSNLNGQYFRSIPQQRQKLKKGIFWKTWRGRYYPLQATTMLIQPMAAEAAS
# What was measured:
# Assay in all cases: glycan array binding signal (z-score within array); higher = stronger binding
# Conditions in all cases: glycan notation: IUPAC condensed, linker removed
# [1] = molecular target: Gal(b1-4)GlcNAc(b1-3)Gal(b1-4)GlcNAc(b1-3)Gal(b1-4)GlcNAc
# Method in brief: (§1)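 The Consortium for Functional Glycomics database supplied 3228 glycan arrays, of which those lacking an available protein sequence were dropped. The binding signal, a within-array Z-score, was averaged across arrays of the same protein sequence and across linkers. Negative scores can be read as non-binding.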
# [2] = molecular target: Gal(b1-4)GlcNAc(b1-3)Gal(b1-4)[Fuc(a1-3)]GlcNAc(b1-3)Gal(b1-4)[Fuc(a1-3)]GlcNAc
# Method in brief: as §1
# [3] = molecular target: Gal(b1-4)GlcNAc(b1-3)GalNAc
# Method in brief: as §1
# [4] = molecular target: Gal(b1-4)GlcNAc(b1-3)[Gal(b1-4)GlcNAc(b1-6)]Gal(b1-4)GlcNAc
# Method in brief: as §1
# [5] = molecular target: Gal(b1-4)GlcNAc(b1-3)[GlcNAc(b1-6)]Gal(b1-4)GlcNAc
# Method in brief: as §1
# [6] = molecular target: Gal(b1-4)GlcNAc(b1-6)Gal(b1-4)GlcNAc
# Method in brief: as §1
# [7] = molecular target: Gal(b1-4)GlcNAc(b1-6)Gal(b1-4)GlcNAc(b1-6)GalNAc
# Method in brief: as §1
# [8] = molecular target: Gal(b1-4)GlcNAc(b1-6)GalNAc
# Method in brief: as §1
# [9] = molecular target: Gal(b1-4)GlcNAc(b1-6)[Gal(b1-3)]GalNAc
# Method in brief: as §1
# [10] = molecular target: Gal3S(b1-3)GalNAc
# Method in brief: as §1
# [11] = molecular target: Gal3S(b1-3)GlcNAc
# Method in brief: as §1
# [12] = molecular target: Gal3S(b1-3)[Fuc(a1-4)]GlcNAc
# Method in brief: as §1
# [13] = molecular target: Gal3S(b1-4)Glc
# Method in brief: as §1
# [14] = molecular target: Gal3S(b1-4)Glc6S
# Method in brief: as §1
# [15] = molecular target: Gal3S(b1-4)GlcNAc
# Method in brief: as §1
# [16] = molecular target: Gal3S(b1-4)GlcNAc6S
# Method in brief: as §1
# [17] = molecular target: Gal3S(b1-4)[Fuc(a1-3)]Glc
# Method in brief: as §1
# [18] = molecular target: Gal3S4S(b1-4)GlcNAc
# Method in brief: as §1
# [19] = molecular target: Gal3S6S(b1-4)GlcNAc
# Method in brief: as §1
# [20] = molecular target: Gal3S6S(b1-4)GlcNAc6S
# Method in brief: as §1
# [21] = molecular target: Gal4S(b1-4)GlcNAc
# Method in brief: as §1
# [22] = molecular target: Gal4S6S(b1-4)GlcNAc
# Method in brief: as §1
# [23] = molecular target: Gal6S(b1-4)Glc
# Method in brief: as §1
# [24] = molecular target: Gal6S(b1-4)Glc6S
# Method in brief: as §1
# [25] = molecular target: Gal6S(b1-4)GlcNAc
# Method in brief: as §1
# [26] = molecular target: Gal6S(b1-4)GlcNAc6S
# Method in brief: as §1
# [27] = molecular target: GalNAc(a1-3)Gal
# Method in brief: as §1
# [28] = molecular target: GalNAc(a1-3)GalNAc
# Method in brief: as §1
# [29] = molecular target: GalNAc(b1-3)Gal
# Method in brief: as §1
# [30] = molecular target: GalNAc(b1-3)Gal(a1-4)Gal(b1-4)GlcNAc
# Method in brief: as §1
# [31] = molecular target: GalNAc(b1-3)GalNAc
# Method in brief: as §1
# [32] = molecular target: GalNAc(b1-4)GlcNAc
# Method in brief: as §1
# [33] = molecular target: Glc(a1-4)Glc
# Method in brief: as §1
# [34] = molecular target: Glc(a1-6)Glc(a1-6)Glc
# Method in brief: as §1
# [35] = molecular target: Glc(b1-4)Glc
# Method in brief: as §1
# [36] = molecular target: Glc(b1-6)Glc
# Method in brief: as §1
# [37] = molecular target: GlcA(b1-3)Gal
# Method in brief: as §1
binder,measurement,setting,value
B1,glycan array binding signal (z-score),[1],-0.164
same,glycan array binding signal (z-score),[2],3.98
same,glycan array binding signal (z-score),[3],-0.334
same,glycan array binding signal (z-score),[4],-1.27
same,glycan array binding signal (z-score),[5],-0.27
same,glycan array binding signal (z-score),[6],-0.064
same,glycan array binding signal (z-score),[7],-0.089
same,glycan array binding signal (z-score),[8],-0.296
same,glycan array binding signal (z-score),[9],-0.211
same,glycan array binding signal (z-score),[10],-0.195
same,glycan array binding signal (z-score),[11],-0.514
same,glycan array binding signal (z-score),[12],-0.525
same,glycan array binding signal (z-score),[13],-0.052
same,glycan array binding signal (z-score),[14],-0.321
same,glycan array binding signal (z-score),[15],-0.362
same,glycan array binding signal (z-score),[16],-0.389
same,glycan array binding signal (z-score),[17],0.244
same,glycan array binding signal (z-score),[18],0.09
same,glycan array binding signal (z-score),[19],-0.864
same,glycan array binding signal (z-score),[20],-0.381
same,glycan array binding signal (z-score),[21],0.045
same,glycan array binding signal (z-score),[22],-0.563
same,glycan array binding signal (z-score),[23],-0.472
same,glycan array binding signal (z-score),[24],0.146
same,glycan array binding signal (z-score),[25],-0.204
same,glycan array binding signal (z-score),[26],-0.657
same,glycan array binding signal (z-score),[27],0.105
same,glycan array binding signal (z-score),[28],-0.009
same,glycan array binding signal (z-score),[29],-0.523
same,glycan array binding signal (z-score),[30],0.337
same,glycan array binding signal (z-score),[31],1.04
same,glycan array binding signal (z-score),[32],-0.398
same,glycan array binding signal (z-score),[33],-0.014
same,glycan array binding signal (z-score),[34],-0.589
same,glycan array binding signal (z-score),[35],-0.685
same,glycan array binding signal (z-score),[36],0.796
same,glycan array binding signal (z-score),[37],0.445
